Among all 110,000 compounds or so, about 230 (0.21%) showed an effect of 50% or more. This is one part of the list.
molecular target: DPAP1 (Plasmodium falciparum, UniProt Q8IIJ9); test: primary screen, percent inhibition; read by cleavage of a fluorogenic dipeptide substrate; higher = more effect of the substance; set-up: species or system P. falciparum D10 trophozoite lysates; single well
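Also: 30 min substrate incubation versus DMSO and 10 µM JCP410 controls.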

Sequence of DPAP1 (Q8IIJ9 whole entry, looked up): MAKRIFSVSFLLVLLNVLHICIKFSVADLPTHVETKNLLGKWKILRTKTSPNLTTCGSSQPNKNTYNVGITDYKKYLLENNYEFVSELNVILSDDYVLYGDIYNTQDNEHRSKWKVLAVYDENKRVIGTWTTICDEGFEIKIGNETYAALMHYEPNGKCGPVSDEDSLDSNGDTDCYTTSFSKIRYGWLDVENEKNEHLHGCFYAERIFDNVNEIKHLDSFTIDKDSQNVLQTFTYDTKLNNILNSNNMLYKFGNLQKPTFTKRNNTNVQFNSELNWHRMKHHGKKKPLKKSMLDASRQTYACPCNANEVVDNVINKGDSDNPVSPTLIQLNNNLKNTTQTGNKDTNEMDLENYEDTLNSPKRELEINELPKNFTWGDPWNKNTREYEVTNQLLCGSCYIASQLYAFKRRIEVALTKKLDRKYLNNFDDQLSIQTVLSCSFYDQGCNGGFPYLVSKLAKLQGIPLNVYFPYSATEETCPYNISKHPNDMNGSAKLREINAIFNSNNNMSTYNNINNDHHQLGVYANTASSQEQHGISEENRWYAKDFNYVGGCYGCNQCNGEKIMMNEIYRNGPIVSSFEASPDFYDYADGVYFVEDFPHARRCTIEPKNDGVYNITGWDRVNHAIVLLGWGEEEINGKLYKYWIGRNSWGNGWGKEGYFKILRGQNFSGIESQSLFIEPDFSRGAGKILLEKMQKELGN

| SMILES | % Inhibition @ 10 uM [%] |
| --- | --- |
| Cc1ccccc1C(=O)O/N=C(\N)Cc1cccs1 | 2.09 |
| COC(=O)c1cc(C)nc2c1c(C)nn2-c1cccc(F)c1 | 3.36 |
| CC(C)(C)NC(=O)CS(=O)(=O)c1ccc2ccccc2c1 | 4.61 |
| O=C(NCCCN1CCOCC1)c1cc(-c2ccc(Cl)s2)nc2ccccc12 | -2.8 |
| CCOc1ccc(C(=O)c2cnc3ccc(C)cc3c2N2CCN(CC)CC2)cc1 | -1.38 |
| c1cnc(Nc2nc(-c3cccnc3)cs2)nc1 | 4.96 |
| CC(=O)N[C@H]1[C@H](Oc2ccccc2)O[C@@H]2COC(c3ccccc3)O[C@H]2[C@@H]1O (stereo partly drawn) | -0.0235 |
| Cc1ccsc1CCNC(=O)c1cc(-c2ccc(Cl)cc2)[nH]n1 | -2 |
| CCOC(=O)C1=C(C)N(CC(C)C)C(=O)/C1=C\c1ccc(OC)cc1 | -7.18 |
| COc1ccc(OC)c(C2CC(=O)Nc3c2c(C)nn3-c2nc(C)cc(C)n2)c1 (stereo not drawn) | 2.25 |
| CC(C)NCC(O)Cn1c2ccc(Br)cc2c2cc(Br)ccc21 (stereo not drawn) | -0.48 |
| Cc1nn(CC(=O)NC2CCCc3ccccc32)c(=O)c2cc3cc(F)ccc3n12 (stereo not drawn) | 3.29 |
| CCOc1ccccc1/C=C(\C#N)c1nc(-c2ccc(Cl)cc2)cs1 | 7.24 |
| Cc1cccn2c(=O)c3cc(S(=O)(=O)c4ccccc4)c(=N)n(Cc4ccccc4)c3nc12 | 29.6 |
| COc1cccc(NC(=O)C2CCCCC2C(=O)O)c1 (stereo not drawn) | 1.96 |
| NC(=O)c1c(NC(=O)c2ccc(Cl)cc2Cl)sc2c1CCCC2 | -5.31 |
| CC(O)CN(Cc1ccccc1Br)CC(C)O (stereo not drawn) | 0.0792 |
| Nc1c(C(=O)c2ccc(F)cc2)oc2ccc(Cl)cc12 | -4.4 |
| CCC1NC(=O)c2ccccc2N1c1cccc(Cl)c1 (stereo not drawn) | -2.1 |
| Cc1cccn2c(=O)c(/C=C(\C#N)C(=O)N3CCOCC3)c(Oc3ccccc3)nc12 | 2 |
| CCOC(=O)c1[nH]c(C)c(C(=O)c2c(F)cccc2Cl)c1C | -2.32 |

| SMILES | % Inhibition @ 10 uM [%] |
| --- | --- |
| O=C(O)C1CSC(c2cccc3ccccc23)N1 (stereo not drawn) | -0.216 |
| Cn1c(SCC(=O)c2c[nH]c3ccccc23)nnc1C1CCCCC1 | 0.032 |
| COc1cccc(C(=O)NCCC(C)C)c1 | 32.1 |
| CCOC(=O)c1ccc2nc(C(F)(F)F)nc(NCCCN3CCCC3=O)c2c1 | -1.11 |
| Nc1c(NCCO)c2ccccc2oc1=O | 0.815 |
| COc1ccc(C2CC(C(F)(F)F)n3ncc(C(=O)Nc4ccccc4SC)c3N2)cc1 (stereo not drawn) | 2.7 |
| c1cn2c3c(n1)CCCc3c1cc(C3CCCCC3)ccc12 | -0.128 |
| Cc1cc(-c2ccccc2)c(C#N)c(N)n1 | -3.58 |
| CCC(C)NC(=O)c1cc(-c2ccc(OC)cc2)on1 (stereo not drawn) | 1.37 |
| CCC(=O)Nc1nc(-c2ccc(OC)c(Br)c2)cs1 | -1.81 |
| COc1ccc(NS(=O)(=O)c2ccc(N/C=C3/C(=O)NC(=O)N(c4ccccc4)C3=O)cc2)cc1 | -4.41 |
| COc1ccc(C2(O)C[N+](c3ccccc3OC)=C3CCCCN32)cc1 (stereo not drawn) | 6.14 |
| COc1ccc(NC(=O)CCC2CCCCC2)cc1 | -4.01 |
| Fc1ccc(N2CC(c3ccc(Cl)cc3Cl)C(c3cccs3)=N2)c(F)c1 (stereo not drawn) | -3.04 |
| COc1cccc(NC(=O)c2c(-c3c(Cl)cccc3Cl)noc2C)c1 | -3.69 |
| O=C(COc1ccc(S(=O)(=O)NC2CCCCC2)cc1)NC1CC1 | -2.09 |
| COc1ccc(OC)c(C2CC(=O)C3=C(C2)NC(=O)CC3c2c(F)cccc2Cl)c1 (stereo not drawn) | -4.16 |
| O=C(CCCC(=O)c1ccccc1)Nc1ccc(Cl)cn1 | -3.21 |
| O=C1NC(=O)C2C1C1(c3ccccc3)NC2(c2ccccc2)C2C(=O)NC(=O)C21 (stereo not drawn) | 1.61 |
| CN1CCN(CC(=O)N2CCCC2=O)CC1 | 0.986 |
| CCOC(=O)c1c(CN2CCN(C)CC2)n(Cc2ccccc2)c2cc(Br)c(O)cc12 | 3.34 |

| SMILES | % Inhibition @ 10 uM [%] |
| --- | --- |
| CCC(C)c1ccccc1OCC(=O)Nc1cc(OC)ccc1OC (stereo not drawn) | -3.26 |
| CCOc1ccccc1N1C(=O)c2ccc(S(=O)(=O)c3ccc(C(=O)O)cc3)cc2C1=O | 7.03 |
| Cc1ccc(C)c(Cn2nnc(C(=O)NCCc3ccc(Cl)cc3)c2N)c1 | 1.26 |
| CCCCNC(=O)N1CCc2ccccc2C1 | 2.17 |
| COc1ccc(OCC(=O)N2c3ccccc3C(Nc3ccccc3)CC2C)cc1 (stereo not drawn) | 3.09 |
| Cn1cc(S(=O)(=O)N2CCOCC2)cc1C(=O)NC1CCCc2ccccc21 (stereo not drawn) | -3.42 |
| Cc1nc(NC(=O)c2ccc(Br)cc2)sc1C(=O)N(C)C | 8.71 |
| COc1ccc(Cl)c(Cn2c(NC3CCCCC3)nc3c2c(=O)n(C)c(=O)n3C)c1 | -3.24 |
| CC1(C)CC(=O)C2=C(C1)N(CCc1ccccc1)C(=O)C2(NC(=O)c1ccco1)C(F)(F)F (stereo not drawn) | -1.72 |
| CC(=O)N1C(=N)S/C(=C/c2cc3ccc(C)cc3nc2N2CCOCC2)C1=O | 1.96 |
| CC(NC(=O)Cn1cccc1C(=O)c1ccccc1)c1ccc2c(c1)OCCO2 (stereo not drawn) | -0.522 |
| CCc1ccc(OCC(=O)N(Cc2cccc(F)c2)Cc2ccco2)cc1 | -1.07 |
| Cc1cc(-c2ccc(S(=O)(=O)N3CCN(C)CC3)cc2)on1 | -1.48 |
| CCCCN(C)CCCNC(=O)C1CC(=O)N(Cc2ccc(OC)cc2)C1 (stereo not drawn) | 3.24 |
| CCC(C)NC(=O)c1cc2cc3ccc(C)cc3nc2s1 (stereo not drawn) | 0.128 |
| CCc1ccc(C2=CC(c3cc(OC)c(OC)c(OC)c3)n3ncnc3N2)cc1 (stereo not drawn) | 3.32 |
| O=C(COc1ccc(Cl)cc1Cl)N1CCC(Cc2ccccc2)CC1 | 1.38 |
| CC1(C)NC(=O)N(CN2CCN(CN3C(=O)NC(C)(C)C3=O)CC2)C1=O | -1.3 |
| CC1(C)COC(c2cccn2Cc2ccc(F)cc2)=N1 | 3.48 |
| CC(NC(=O)C1CCCN1C(=O)OCc1ccccc1)c1ccccc1 (stereo not drawn) | -2.45 |
| CCCCNCc1c(C(=O)O)c(C)n(Cc2cc(C)ccc2C)c1C | -0.23 |

Source: paper PMC6919601, “Identification of Plasmodium dipeptidyl aminopeptidase allosteric inhibitors by high throughput screening” (PLoS ONE, 2019)
